Reference: PubChem BioAssay (NCI)
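Results reflect a 48-hour exposure of cells in 96-well plates to compound at five concentrations. GI50 is the concentration that inhibits growth by half.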 A number of entries come with more than one value. This list holds those alone. There may be further records. For some of these results: A record mostly stands for its own series of concentrations, not given here; some values may only mark the edge of a range.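 TGI: concentration producing complete growth inhibition.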 For some of these results: Values given together repeat one measurement (runs, samples, wells, individuals or studies). What stands in brackets tells the records apart. The letters are not those of the source and start again with each entry.

How the values were obtained:
Experiment in all cases: growth of human tumour cells (NCI), 48 h
[1] = test system: M14 melanoma
[2] = test system: OVCAR-8 ovarian
[3] = test system: UACC-62 melanoma
[4] = test system: HT29 colon
[5] = test system: 786-0 renal
[6] = test system: TK-10 renal
[7] = test system: HL-60(TB) leukemia
[8] = test system: UO-31 renal
[9] = test system: MOLT-4 leukemia
[10] = test system: A549 NSCLC
[11] = test system: CCRF-CEM leukemia
[12] = test system: OVCAR-5 ovarian
[13] = test system: HOP-92 NSCLC
[14] = test system: T-47D breast
[15] = test system: NCI/ADR-RES ovarian

Structure (SMILES): CC(C)C[C@@H](NC(=O)[C@@H](Cc1ccccc1)NC(=O)c1cnccn1)B1Oc2ccc(C[C@H](NC(=O)[C@H](Cc3ccc4c(c3)OB([C@@H](CC(C)C)NC(=O)[C@@H](Cc3ccccc3)NC(=O)c3cnccn3)O4)NC(=O)[C@@H](N)CC3CCC4OB([C@@H](CC(C)C)NC(=O)[C@@H](CC5CCCCC5)NC(=O)C5CNCCN5)OC4C3)C(=O)NCCCC[C@@H]3NC(=O)[C@@H](Cc4ccccc4)NC(=O)[C@H](CC(=O)O)NC(=O)CNC(=O)[C@H](CCCNC(=N)N)NC3=O)cc2O1 (stereo partly specified)
- TGI [1]: 141 nM and 3.77 nM
- TGI [2]: 460 nM and 33.4 nM
- TGI [3]: 78.3 nM and 6.19 nM
- TGI [4]: 114 nM and 4.56 nM
- TGI [5]: 36.8 nM and 762 nM
- TGI [6]: 105 nM and 4.97 nM

Structure (SMILES): O=[N+]([O-])c1cccc2nc3ccccc3c(NCCN(CCO)CCO)c12
- TGI [7]: 786 nM and 13.8 nM
- TGI [8]: 104 nM and 1.48 µM

Structure (SMILES): COc1ccc2c(c1)c1c(C)c3cnccc3c(C)c1n2CCCN
- GI50 [9]: < 10 nM [1 test] and 119 nM [mean of 3 tests]
- TGI [10]: 1.43 µM and 132 nM
- TGI [11]: 13.4 µM [1 test] and 417 nM [mean of 3 tests]

Structure (SMILES): Nc1ccccc1NC(=O)c1ccc(CNC(=O)OCc2cccnc2)cc1
- TGI [4]: 5.82 µM [sample A] and > 100 µM [sample B]
- TGI [12]: 771 nM [sample A] and 49.5 µM [sample B]
- TGI [13]: 17.8 µM [sample A] and 886 nM [sample B]

Structure (SMILES): C/C=C/C1=CN2C(=O)c3cc(OC4OC(C)C(NC)C(C)(O)C4O)c(C)cc3N=C[C@@H]2C1 (stereo partly specified)
- TGI [14]: 92.2 nM and 5.61 µM
- GI50 [15]: 191 nM and 14.6 nM
